{"source": "the supplement of paper PMC12423691", "binders": {"B1": {"name": "TRIM31, Q9BZY9 (protein)", "chain": "MASGQFVNKLQEEVICPICLDILQKPVTIDCGHNFCLKCITQIGETSCGFFKCPLCKTSVRKNAIRFNSLLRNLVEKIQALQASEVQSKRKEATCPRHQEMFHYFCEDDGKFLCFVCRESKDHKSHNVSLIEEAAQNYQGQIQEQIQVLQQKEKETVQVKAQGVHRVDVFTDQVEHEKQRILTEFELLHQVLEEEKNFLLSRIYWLGHEGTEAGKHYVASTEPQLNDLKKLVDSLKTKQNMPPRQLLEDIKVVLCRSEEFQFLNPTPVPLELEKKLSEAKSRHDSITGSLKKFKDQLQADRKKDENRFFKSMNKNDMKSWGLLQKNNHKMNKTSEPGSSSAGGRTTSGPPNHHSSAPSHSLFRASSAGKVTFPVCLLASYDEISGQGASSQDTKTFDVALSEELHAALSEWLTAIRAWFCEVPSS"}, "B2": {"name": "SCAND1, P57086 (protein)", "chain": "MAATEPILAATGSPAAVPPEKLEGAGSSSAPERNCVGSSLPEASPPAPEPSSPNAAVPEAIPTPRAAASAALELPLGPAPVSVAPQAEAEARSTPGPAGSRLGPETFRQRFRQFRYQDAAGPREAFRQLRELSRQWLRPDIRTKEQIVEMLVQEQLLAILPEAARARRIRRRTDVRITG"}, "B3": {"name": "NFE2, Q16621 (protein)", "chain": "MSPCPPQQSRNRVIQLSTSELGEMELTWQEIMSITELQGLNAPSEPSFEPQAPAPYLGPPPPTTYCPCSIHPDSGFPLPPPPYELPASTSHVPDPPYSYGNMAIPVSKPLSLSGLLSEPLQDPLALLDIGLPAGPPKPQEDPESDSGLSLNYSDAESLELEGTEAGRRRSEYVEMYPVEYPYSLMPNSLAHSNYTLPAAETPLALEPSSGPVRAKPTARGEAGSRDERRALAMKIPFPTDKIVNLPVDDFNELLARYPLTESQLALVRDIRRRGKNKVAAQNCRKRKLETIVQLERELERLTNERERLLRARGEADRTLEVMRQQLTELYRDIFQHLRDESGNSYSPEEYALQQAADGTIFLVPRGTKMEATD"}, "B4": {"name": "ESX1, Q8N693 (protein)", "chain": "MESLRGYTHSDIGYRSLAVGEDIEEVNDEKLTVTSLMARGGEDEENTRSKPEYGTEAENNVGTEGSVPSDDQDREGGGGHEPEQQQEEPPLTKPEQQQEEPPLLELKQEQEEPPQTTVEGPQPAEGPQTAEGPQPPERKRRRRTAFTQFQLQELENFFDESQYPDVVARERLAARLNLTEDRVQVWFQNRRAKWKRNQRVLMLRNTATADLAHPLDMFLGGAYYAAPALDPALCVHLVPQLPRPPVLPVPPMPPRPPMVPMPPRPPIAPMPPMAPVPPGSRMAPVPPGPRMAPVPPWPPMAPVPPWPPMAPVPTGPPMAPVPPGPPMARVPPGPPMARVPPGPPMAPLPPGPPMAPLPPGPPMAPLPPGPPMAPLPPRSHVPHTGLAPVHITWAPVINSYYACPFF"}, "B5": {"name": "ZSCAN1, Q8NBB4 (protein)", "chain": "MLPRPKAPASPRRPQTPTPSEQDADPGPASPRDTEAQRLRFRQFQYHVASGPHLALGQLWTLCRQWLRPEARSKEQMLELLVLEQFLGALPSKMRTWVQSQGPRSCREAASLVEDLTQMCQQEVLVSLDSVEPQDWSFGEEEDGKSPRSQKEPSQASELILDAVAAAPALPEESEWLETTQLQQSLHTRAEAEAPRAPGLLGSRARLPLKPSIWDEPEDLLAGPSSDLRAEGTVISSPKGPSAQRISPRRRNRNTDQSGRHQPSLKHTKGGTQEAVAGISVVPRGPRGGRPFQCADCGMVFTWVTHFIEHQKTHREEGPFPCPECGKVFLHNSVLTEHGKIHLLEPPRKKAPRSKGPRESVPPRDGAQGPVAPRSPKRPFQCSVCGKAFPWMVHLIDHQKLHTAHGHM"}, "B6": {"name": "ZFPM2, Q8WW38 (protein)", "chain": "MSRRKQSKPRQIKRPLEDAIEDEEEECPSEETDIISKGDFPLEESFSTEFGPENLSCEEVEYFCNKGDDEGIQETAESDGDTQSEKPGQPGVETDDWDGPGELEVFQKDGERKIQSRQQLPVGTTWGPFPGKMDLNNNSLKTKAQVPMVLTAGPKWLLDVTWQGVEDNKNNCIVYSKGGQLWCTTTKAISEGEELIAFVVDFDSRLQAASQMTLTEGMYPARLLDSIQLLPQQAAMASILPTAIVNKDIFPCKSCGIWYRSERNLQAHLMYYCSGRQREAAPVSEENEDSAHQISSLCPFPQCTKSFSNARALEMHLNSHSGVKMEEFLPPGASLKCTVCSYTADSVINFHQHLFSHLTQAAFRCNHCHFGFQTQRELLQHQELHVPSGKLPRESDMEHSPSATEDSLQPATDLLTRSELPQSQKAMQTKDASSDTELDKCEKKTQLFLTNQRPEIQPTTNKQSFSYTKIKSEPSSPRLASSPVQPNIGPSFPVGPFLSQFSFPQDITMVPQASEILAKMSELVHRRLRHGSSSYPPVIYSPLMPKGATCFECNITFNNLDNYLVHKKHYCSSRWQQMAKSPEFPSVSEKMPEALSPNTGQTSINLLNPAAHSADPENPLLQTSCINSSTVLDLIGPNGKGHDKDFSTQTKKLSTSSNNDDKINGKPVDVKNPSVPLVDGESDPNKTTCEACNITFSRHETYMVHKQYYCATRHDPPLKRSASNKVPAMQRTMRTRKRRKMYEMCLPEQEQRPPLVQQRFLDVANLNNPCTSTQEPTEGLGECYHPRCDIFPGIVSKHLETSLTINKCVPVSKCDTTHSSVSCLEMDVPIDLSKKCLSQSERTTTSPKRLLDYHECTVCKISFNKVENYLAHKQNFCPVTAHQRNDLGQLDGKVFPNPESERNSPDVSYERSIIKCEKNGNLKQPSPNGNLFSSHLATLQGLKVFSEAAQLIATKEENRHLFLPQCLYPGAIKKAKGADQLSPYYGIKPSDYISGSLVIHNTDIEQSRNAENESPKGQASSNGCAALKKDSLPLLPKNRGMVIVNGGLKQDERPAANPQQENISQNPQHEDDHKSPSWISENPLAANENVSPGIPSAEEQLSSIAKGVNGSSQAPTSGKYCRLCDIQFNNLSNFITHKKFYCSSHAAEHVK"}, "B7": {"name": "ZSCAN18, Q8TBC5 (protein)", "chain": "MLPLEKAFASPRSSPAPPDLPTPGSAAGVQQEEPETIPERTPADLEFSRLRFREFVYQEAAGPHQTLARLHELCRQWLMPEARSKEQMLELLVLEQFLGILPDKVRPWVVAQYPESCKKAASLVEGLADVLEEPGMLLGSPAGSSSILSDGVYERHMDPLLLPGELASPSQALGAGEIPAPSETPWLSPDPLFLEQRRVREAKTEEDGPANTEQKLKSFPEDPQHLGEWGHLDPAEENLKSYRKLLLWGYQLSQPDAASRLDTEELRLVERDPQGSSLPEGGRRQESAGCACEEAAPAGVLPELPTEAPPGDALADPPSGTTEEEEEQPGKAPDPQDPQDAESDSATGSQRQSVIQQPAPDRGTAKLGTKRPHPEDGDGQSLEGVSSSGDSAGLEAGQGPGADEPGLSRGKPYACGECGEAFAWLSHLMEHHSSHGGRKRYACQGCWKTFHFSLALAEHQKTHEKEKSYALGGARGPQPSTREAQAGARAGGPPESVEGEAPPAPPEAQR"}}, "note": "Some of the results follow. Binding of human transcription factors and regulators to the viral nucleoprotein by AlphaScreen, crude cell-free proteins, amounts not normalised, one pass. Fold of the Venus control; higher = more signal. No active / inactive call. Single-pass screen; sequences are the whole Swiss-Prot entries looked up by name.", "data": [{"target": "nucleoprotein N of Crimean-Congo hemorrhagic fever virus", "assay": "AlphaScreen luminescence signal relative to Venus negative control (fold); higher = stronger binding to CCHFV N", "protocol": "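AlphaScreen binding of cell-free made, FLAG-GST-tagged human transcription factors and regulators (crude translation products) to biotinylated N protein; signal as fold of the FLAG-GST-Venus control. One pass.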", "values": [{"binder": "B1", "AlphaScreen luminescence signal": 1.4}, {"binder": "B2", "AlphaScreen luminescence signal": 13.9}, {"binder": "B3", "AlphaScreen luminescence signal": 1.12}, {"binder": "B4", "AlphaScreen luminescence signal": 2.19}, {"binder": "B5", "AlphaScreen luminescence signal": 1.63}, {"binder": "B6", "AlphaScreen luminescence signal": 2.19}, {"binder": "B7", "AlphaScreen luminescence signal": 1.53}]}]}
